Results: PubChem BioAssay AID485294 (National Center for Advancing Translational Sciences (NCATS), 2010)
Among all 370,000 compounds or so, about 150 (0.041%) were called active. This list was built around the results that the source calls inconclusive (neither active nor inactive); the mix of calls is not that of the screen. Calls follow the shape of the dose curve; as a rule, active = well fitted inhibition curve with a large enough effect; inconclusive = small, poorly fitted or top-dose-only effect; inactive = flat fitted curve, though single readings scatter. No potency is given beside an inconclusive call; the fits are too rough.

Target: Beta-lactamase (Escherichia coli (strain K12)) (UniProt P00811)
Chain of UniProt P00811 (P00811 whole entry, looked up): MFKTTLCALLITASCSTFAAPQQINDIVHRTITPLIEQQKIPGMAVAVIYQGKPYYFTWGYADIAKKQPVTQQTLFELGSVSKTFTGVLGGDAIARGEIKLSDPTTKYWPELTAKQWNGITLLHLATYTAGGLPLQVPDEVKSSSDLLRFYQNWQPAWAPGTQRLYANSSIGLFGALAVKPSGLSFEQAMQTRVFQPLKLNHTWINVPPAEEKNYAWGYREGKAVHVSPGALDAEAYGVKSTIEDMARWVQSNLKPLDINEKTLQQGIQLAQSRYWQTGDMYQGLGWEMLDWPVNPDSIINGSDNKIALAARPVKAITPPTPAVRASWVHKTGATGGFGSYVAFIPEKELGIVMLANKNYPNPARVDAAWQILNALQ
Assay: qHTS Inhibitors of AmpC Beta-Lactamase (assay with detergent); also: nearly all actives have a fitted effect of over 25% in size;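 as to activity change, negative = inhibition: 0% = no-compound wells and -100% = no-enzyme wells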
Conditions: AmpC hydrolysis of nitrocefin, absorbance 480 nm, 0.01% Triton; activity change, negative = inhibition: at 114 µM (top of the series)
Method in brief: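 AmpC (5.3 nM in the dispensed reagent) in 20 mM phosphate pH 7.0 with 0.01% (detergent screen) or 0.0001% Triton X-100 was preincubated with compounds for 15 min at room temperature. Nitrocefin was then added from an 800 uM solution, and hydrolysis was followed at 480 nm.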
Potency is read from the fitted curve at half-maximal effect; tags tell the direction and shape of the fitted curve.

Q: For `Cc1nn2c(=O)cc(COC(=O)c3ccccc3NC(=O)c3cccs3)nc2s1`, which “activity change, negative = inhibition” value is on record?
A: Its value is inactive: 6.74%.

Q: How did the “activity change, negative = inhibition” value turn out when `CCNC(=O)COC(=O)c1cc(-c2ccccc2)nn1-c1ccccc1` was run?
A: Its value is inactive: -7.07%.

Q: How did the Potency turn out when `COc1ccc(CCC(=O)Nc2nc3ccccc3[nH]2)cc1OC` was run?
A: Its Potency is inconclusive [inhibitor, partial curve, poor fit].

Q: Which “activity change, negative = inhibition” value does the source give for `O=S(=O)(Oc1ccccc1/C=N/n1cnnc1)c1ccccc1` here?
A: Its value is inactive: -0.173%.

Q: Which Potency does the source give for `Cc1ccc(SCC(=O)NC2CC2)cc1` here?
A: Its Potency is inconclusive [inhibitor, full curve, poor fit].

Q: How did the Potency turn out when `CC(C)NC(=O)COc1ccc(Cl)cc1Cl` was run?
A: Its Potency is inconclusive [inhibitor, full curve, poor fit].

Q: `Cc1ccc(C2C3CSCC=C3C(C#N)=C(N)C2(C#N)C#N)cc1` (centres undefined) was tested. Which “activity change, negative = inhibition” value did it give?
A: Its value is inactive: -0.193%.

Q: `NNC(=O)CP(=O)(c1ccccc1)c1ccccc1` was tested. Which Potency did it give?
A: Its Potency is inconclusive [inhibitor, full curve, poor fit].

Q: How did the Potency turn out when `O=c1cc(-c2ccc(O)cc2)oc2cc(O[C@@H]3O[C@H](CO)[C@@H](O)[C@H](O)[C@H]3O[C@@H]3OC[C@](O)(CO)[C@H]3O)cc(O)c12` was run?
A: Its Potency is inconclusive [inhibitor, full curve, poor fit].

Q: How did the “activity change, negative = inhibition” value turn out when `O=C(N/C(=C/c1ccc(Cl)cc1)C(=O)N1CCOCC1)c1ccccc1` was run?
A: The value was inactive: -0.767%.

Q: For `COc1ccc(CCN(C)C/C=C/c2ccccc2)cc1OC`, which Potency is on record?
A: Its Potency is inconclusive [inhibitor, full curve, poor fit].

Q: With `CC(=O)Nc1ccc(OCC(=O)NCc2ccc(C)cc2)cc1` as the molecule, how does the Potency read?
A: The Potency was inconclusive [inhibitor, partial curve, poor fit].

Q: How did the Potency turn out when `COC(=O)[C@]1(C)N[C@H](c2ccc(-c3ccc(F)cc3)cc2)[C@@H]2C(=O)N(C)C(=O)[C@@H]21` was run?
A: The Potency was inconclusive [inhibitor, full curve].

Q: For `Cc1cc(C(=O)OCC(=O)Nc2cc(C)on2)c2ccccc2n1`, which Potency is on record?
A: The Potency was inconclusive [inhibitor, full curve, poor fit].

Q: Which Potency does the source give for `CN(CC(=O)Nc1c(Cl)cccc1Cl)C(=O)c1ccccc1Cc1ccccc1` here?
A: Its Potency is inconclusive [inhibitor, full curve, poor fit].

Q: For `Cc1ccc(CNC(=O)c2ccc(Nc3nc4ccccc4n4nnnc34)cc2)cc1`, which “activity change, negative = inhibition” value is on record?
A: Its value is inactive: -4.62%.

Q: How did the Potency turn out when `CCOc1ccc(C(=O)c2ccccc2C(=O)O)cc1OCC` was run?
A: The Potency was inconclusive [inhibitor, partial curve, poor fit].

Q: With `COc1cc(C(=O)NCC(=O)NCC2COc3ccccc3O2)cc(OC)c1OC` (centres undefined) as the molecule, how does the Potency read?
A: Its Potency is inconclusive [inhibitor, partial curve, poor fit].

Q: With `CSc1ccccc1C(=O)NCCOc1ccccc1C` as the molecule, how does the Potency read?
A: The Potency was inconclusive [inhibitor, partial curve].

Q: With `Cc1ccn2c(=O)nc(SCC(=O)Nc3ccc4c(c3)OCCO4)nc2c1` as the molecule, how does the Potency read?
A: The Potency was inconclusive [inhibitor, full curve].

Q: With `Cc1c(NC(=O)COc2ncnc3c(Cl)cc(Cl)cc23)c(=O)n(-c2ccccc2)n1C` as the molecule, how does the “activity change, negative = inhibition” value read?
A: Its value is inactive: -14.9%.

Q: With `O=C(/C=C/c1cccc([N+](=O)[O-])c1)NC1CC2CCC1C2` (centres undefined) as the molecule, how does the Potency read?
A: The Potency was inconclusive [inhibitor, full curve, poor fit].

Q: Which “activity change, negative = inhibition” value does the source give for `COc1ccccc1-c1nnc(NC(=O)CSc2nncn2C)s1` here?
A: Its value is inactive: -5.34%.

Q: Which Potency does the source give for `Cc1sc2nc(CN3CCCC3)nc(Cl)c2c1C` here?
A: The Potency was inconclusive [inhibitor, partial curve, poor fit].

Q: For `COc1ccc(-c2noc3c2-c2nc(-c4ccccc4F)sc2CC3)cc1`, which Potency is on record?
A: The Potency was inconclusive [inhibitor, full curve, poor fit].

Q: How did the Potency turn out when `O=C(NCCc1csc(-c2ccc(C(F)(F)F)cc2)n1)c1cccs1` was run?
A: Its Potency is inconclusive [inhibitor, full curve].

Q: How did the “activity change, negative = inhibition” value turn out when `O=C(N/N=C/C=C/c1ccco1)c1ccccc1Cl` was run?
A: Its value is inactive: -13.8%.

Q: With `COc1ccc(C(C(=O)Nc2ccc(F)cc2)N(C(=O)Cn2nnc3ccccc32)C2CC2)cc1` (centres undefined) as the molecule, how does the “activity change, negative = inhibition” value read?
A: Its value is inactive: -10.5%.

Q: How did the Potency turn out when `O=C(c1ccc2c(=O)n3c(nc2c1)CCC3)N1CCCSC1=Nc1ccccc1` was run?
A: The Potency was inconclusive [inhibitor, full curve, poor fit].

Q: Which “activity change, negative = inhibition” value does the source give for `CC(=O)Nc1nc(C)nc(-c2ccccc2OC(C)=O)n1` here?
A: The value was inactive: 1.73%.

Q: Which Potency does the source give for `COCCNC(=S)N1CCN(C(c2ccccc2)c2ccccc2)CC1` here?
A: Its Potency is inconclusive [inhibitor, full curve].

Q: Which Potency does the source give for `O=S(=O)(c1ccccc1)c1nc(NCc2ccccc2)sc1Cl` here?
A: Its Potency is inconclusive [inhibitor, partial curve].

Q: Which Potency does the source give for `Cc1cc(=O)[nH]c(SCC(=O)C23CC4CC(CC(C4)C2)C3)c1C#N` here?
A: The Potency was inconclusive [inhibitor, full curve].

Q: With `CCOc1ccccc1NC(=O)COC(=O)c1c(CC)noc1C` as the molecule, how does the Potency read?
A: The Potency was inconclusive [inhibitor, partial curve].

Q: `O=C(c1ccc(NS(=O)(=O)c2ccc(F)cc2)cc1)N1CCCCCC1` was tested. Which Potency did it give?
A: Its Potency is inconclusive [inhibitor, full curve, poor fit].

Q: How did the “activity change, negative = inhibition” value turn out when `CCc1nnc(NC(=O)C=C(C)C)s1` was run?
A: The value was inactive: 1.92%.

Q: How did the Potency turn out when `CCSc1nc2ccc(N3C(=O)C4C5C=CC(C5)C4C3=O)cc2s1` (centres undefined) was run?
A: Its Potency is inconclusive [inhibitor, full curve, poor fit].

Q: For `O=C(CCC1COc2ccccc2O1)NC1CCCCC1` (centres undefined), which Potency is on record?
A: Its Potency is inconclusive [inhibitor, full curve, poor fit].

Q: Which Potency does the source give for `COc1cccc(-c2noc(CCC(=O)NCCc3ccccc3)n2)c1` here?
A: The Potency was inconclusive [inhibitor, full curve, poor fit].

Q: With `O=c1ccc2cc3c([nH]c4ccc(Br)cc43)oc-2c1O` as the molecule, how does the “activity change, negative = inhibition” value read?
A: The value was inactive: -7.99%.

Q: With `Fc1ccc(-c2ccnc3nc(-n4cccc4)nn23)cc1` as the molecule, how does the Potency read?
A: The Potency was inconclusive [inhibitor, single point].

Q: For `COc1cc(NC(=O)CSc2nc3ccccc3n2-c2ccccc2)c(C)cc1[N+](=O)[O-]`, which “activity change, negative = inhibition” value is on record?
A: Its value is inactive: -3.53%.

Q: Which “activity change, negative = inhibition” value does the source give for `CCCCNC(=S)Nc1cc([N+](=O)[O-])ccc1C` here?
A: The value was inactive: -18.5%.

Q: With `CC1(C)CC(=O)C2=C(C1)NC(=O)CC2c1cc2c(cc1Br)OCO2` (centres undefined) as the molecule, how does the Potency read?
A: Its Potency is inconclusive [inhibitor, partial curve, poor fit].
